# Results published in PubChem BioAssay AID1963576 (National Center for Advancing Translational Sciences (NCATS), 2024).
# The campaign covered roughly 46,000 compounds. About 60 (0.1%) were called active. Not shown: some 3% with an inconclusive outcome. The call rests on the fitted dose curve; in most records, active means well fitted inhibition curve with a large enough effect; inconclusive means small, poorly fitted or top-dose-only effect; inactive means no such curve, though single readings can be large or run the other way. The list shows a part of the results.
# Assay: Primary qHTS assay for Inhibitors of ovarian cancer metastasis using an organotypic tumor microenvironment (TME) model. Further: nearly all actives have a fitted effect of over 65% in size.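 On activity change, negative = inhibition: plate controls were DMSO wells for no effect and tomatine positive control wells for full effect.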
# Conditions: SKOV3ip1-GFP adhesion/invasion on 3D omental model, fluorescence; series mostly up to 45.8 µM; activity change, negative = inhibition: at the top concentration
# In short: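 Primary human omental fibroblast/mesothelial 3D culture pre-formed 48 h. SKOV3ip1-GFP cells added with compounds (0.36-46 umol/L), incubated 2 h RT/16 h 37 C, fixed; GFP cells quantified at 488/509 nm.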
Structure (SMILES),"activity change, negative = inhibition",outcome
COc1cc(Cn2c(=O)sc3ccccc32)ccc1OC(C)C,inactive: -0.374%,
Cc1ccc(-c2nc3cc(C(C)C)ccc3o2)cc1NC(=O)c1cccs1,inactive: 12.1%,
COc1ccc2c(c1)CCc1c(C(=O)Nc3cc(C)ccc3O)noc1-2,,inactive
CCCCOc1ccc(CNC(=O)C2CCN(c3nnc(-n4cccc4CNc4ccc(C)cc4)s3)CC2)cc1,inactive: -1.05%,
COc1cc(Br)c(/C=C(\C#N)c2nc3ccccc3[nH]2)cc1OC,inactive: -8.05%,
COc1cccc(NC(=O)CCNS(=O)(=O)c2ccc(Br)s2)c1,inactive: -1.25%,
CCc1nn(CC(=O)N2CCCCC2)c(=O)c2cc3sccc3n12,,inactive
COc1ccc(CNC(=O)Cc2csc3ccccc23)cc1OC,inactive: -0.244%,
Cc1ccc(C)c(N2CCN(CCCNC(=O)Nc3cc(Cl)ccc3C)CC2)c1,inactive: -0.328%,
CC(C)OCCCNC(=O)c1ccc(-n2c(-c3ccccc3)cc3c2CCCC3)cc1,,inactive
Cc1ccc(N2C(=O)CSC23C(=O)N(CC(=O)NC2CCCCC2)c2ccccc23)cc1 (configuration not stated),inactive: -26.4%,
COc1cccc(C(=O)NCC(c2ccc(N(C)C)cc2)N2CCCC2)c1OC (configuration not stated),inactive: 2.21%,
CC(C)CN1CCc2nc(N3CCN(c4ncccn4)CC3)ncc2C1,inactive: 2.68%,
Cc1cn2c(=O)c(S(=O)(=O)NCCc3ccccc3)c(C)nc2s1,inactive: 4.97%,
COc1ccc2nc(NC(=O)c3nc(SCc4ccc(F)cc4)ncc3Cl)sc2c1,inactive: -6.9%,
CCOc1ccc(-c2nnc(SCC(=O)NCCC(C)C)nc2-c2ccc(OCC)c(OC)c2)cc1OC,inactive: -11.7%,
CCc1ccccc1NC(=O)C1CCC(CNS(=O)(=O)c2ccc3c(c2)CC(C)N3C(C)=O)CC1 (configuration not stated),inactive: -9.6%,
O=C(COC(=O)CCCC1=NS(=O)(=O)c2ccccc2N1)Nc1ccc(Br)cc1,,inactive
O=C(Nc1ccc(F)cc1)[C@H](CSCc1ccccc1)N1Cc2ccccc2C1=O,,inactive
Cc1ccc(S(=O)(=O)c2nnn3c2nc(N2CCN(c4ccc(F)cc4)CC2)c2cc(Cl)ccc23)cc1C,inactive: 7.13%,
Cc1ccc(N2CCN(C(=O)Cc3c(C(=O)O)c(C)cn3C)CC2)c(C)c1,inactive: 3.07%,

Structure (SMILES),"activity change, negative = inhibition",outcome
CCOc1ccc(OCC)c(NC(=O)C2CCN(S(=O)(=O)c3ccc(Br)s3)CC2)c1,inactive: -5.46%,
COc1ccc2nc(SCC(=O)c3c(C)[nH]c4ccccc34)nc(C)c2c1,inactive: 18.5%,
COc1ccc(-c2nc(C)c(CCNC(=O)Cc3ccc(F)cc3)s2)cc1OC,,inactive
OCc1ccc(-c2nn(Cc3ccccc3)c3ccccc23)o1,inactive: 1.35%,
NC(=O)c1cccnc1,inactive: -23.8%,
COc1cccc(-n2c(=O)c3c(C)c(C(=O)N(C)C)sc3n(CC(=O)NCCc3ccc(OC)c(OC)c3)c2=O)c1,inactive: 11.1%,
Cc1cccc(NC(=O)N2CCc3c(sc4c3CCCC4)C2c2ccc(F)cc2)c1 (configuration not stated),inactive: 2.52%,
CCc1ccccc1NC(=O)N1CCN(c2cc(-c3noc(C)n3)ccc2C)CC1,,inactive
Cc1nc2nc(NCc3cccc(Br)c3)[nH]n2c(=O)c1Cc1ccccc1,inactive: 2.06%,
O=C(Nc1cccc(Cl)c1Cl)c1ccc2c(c1)N(Cc1cccc(Cl)c1)C(=O)c1ccccc1S2(=O)=O,inactive: 2.33%,
COc1ccc2oc(=O)c(C(=O)NCCc3c(C)[nH]c4c(Cl)cccc34)cc2c1,inactive: 4.8%,
COc1cc2ccccc2cc1C(=O)Nc1cccc(-c2nc3cc(C)c(C)cc3o2)c1C,inactive: 14.6%,
CCC(=O)N1CCc2cc(Br)cc(S(=O)(=O)N3CCCC(C(=O)Nc4ccc(OC)c(Cl)c4)C3)c21 (configuration not stated),inactive: 7.42%,
Cn1nnnc1SCCNCc1ccc(F)cc1,inactive: -13.6%,
Cc1ccc(CN(C(=O)COc2cccc([N+](=O)[O-])c2)c2ccccn2)o1,inactive: 6.37%,
O=S(=O)(Nc1ccc(Cl)cc1)c1ccc(NS(=O)(=O)c2ccc3c(c2)OCCO3)cc1,inactive: 33.6%,
CCOC(=O)c1cccc(NC(=O)C(CC(C)C)N2Cc3ccccc3C2=O)c1 (configuration not stated),,inactive
N#C/C(=C/c1cn(Cc2ccc(F)cc2)c2ccccc12)C(=O)Nc1cccc(Cl)c1,inactive: -1.73%,
CCn1c2ccccc2c2nnc(SCCN3CCCCC3)nc21,inactive: 1.38%,
COc1ccccc1Nc1nn2c(=O)c3ccc(C(=O)NCCCOC(C)C)cc3nc2s1,inactive: -5.62%,
COC(=O)CC1c2cc(OC)c(OC)cc2CCN1C(=O)Nc1ccc(C)cc1Cl (configuration not stated),inactive: 12.8%,

Structure (SMILES),"activity change, negative = inhibition",outcome
CCOc1ccc(CNC(=O)CCC(=O)N2CC(C)Sc3ccccc32)cc1 (configuration not stated),inactive: 22.9%,
O=C(CSc1nccn1-c1ccccc1)Nc1nc2ccccc2s1,,inactive
CCOc1ccc(CCNC(=O)CCCn2nc(C)c3sc4ccccc4c3c2=O)cc1OCC,,inactive
CCCc1cc(=O)[nH]c(Nc2ccc(C(=O)O)cc2)n1,,inactive
COc1ccc(OC)c(CNC(=O)CCCn2ccc3cc(S(=O)(=O)N4CCCC4)ccc32)c1,inactive: -26.4%,
COc1cc(-c2noc(-c3ccc(NCc4cccnc4)c([N+](=O)[O-])c3)n2)cc(OC)c1OC,,inactive
Cc1ccc(NC(=O)c2cnc(SCC(=O)N3CCOCC3)n(C)c2=O)cc1,inactive: -1.33%,
CCC1CN(C(=O)N2CCC(C(=O)NCCN(C)C)CC2)c2ccccc2O1 (configuration not stated),inactive: -3.89%,
CCOc1ccc(OCC)c(NC(=O)Cn2ncc3c4ccccc4n(Cc4ccccc4)c3c2=O)c1,inactive: -1.98%,
CCc1ccc(CNC(=O)c2cccc(-n3cnc4cccnc43)c2C)cc1,inactive: 17.8%,
CN(c1ccc(Cl)cc1)S(=O)(=O)c1nnc(NC(=O)C2CCCCC2)s1,inactive: 7.16%,
COc1ccc(C)cc1N(C)C(=O)c1c(C)oc2ncnc(N3CCOCC3)c12,inactive: 5.01%,
COc1cccc(NC(=O)CN(C)S(=O)(=O)c2ccc3nc(C)sc3c2)c1,,inactive
COC(=O)c1c(C)sc(-c2c(-c3ccc4c(c3)OCCO4)[nH]c3c2c(=O)n(C)c(=O)n3C)c1O,inactive: -3.18%,
CCNC(=O)c1cnc2sc(N3CCCCCC3)nn2c1=O,inactive: 17.7%,
CCOc1ccccc1NC(=O)c1c(NC(=O)c2ccccc2C)sc2c1CCC(C)C2 (configuration not stated),,inactive
COc1cc(C(=O)Oc2c(Sc3ccc(C)cc3)c(C)nn2-c2ccccc2)cc(OC)c1OC,inactive: 1.88%,
Cc1ccn2c(Nc3ccc4c(c3)OCCO4)c(-c3ccc(Cl)s3)nc2c1,inactive: -11.9%,
CN(C1CCCCC1)S(=O)(=O)c1ccc2c(c1)c(=O)c(C(=O)NCCc1ccccc1)cn2C,inactive: 12%,
Cc1ccc2c(c1)cc(C(=O)Nc1ccc(F)cc1F)n2C,inactive: -5.78%,
